According to article PMC4336329 (PLoS ONE, 2015):
Hit rate of the full screen: of about 310,000 compounds, about 2,200 (0.71%) showed an effect of 50% or more. The effect is printed as a negative number. This is one part of the list.

target: human ether-à-go-go-related gene (hERG) potassium channel (human, UniProt Q12809); test: primary screen, population patch clamp on CHO cells stably expressing hERG
Sequence (Q12809 whole entry, looked up): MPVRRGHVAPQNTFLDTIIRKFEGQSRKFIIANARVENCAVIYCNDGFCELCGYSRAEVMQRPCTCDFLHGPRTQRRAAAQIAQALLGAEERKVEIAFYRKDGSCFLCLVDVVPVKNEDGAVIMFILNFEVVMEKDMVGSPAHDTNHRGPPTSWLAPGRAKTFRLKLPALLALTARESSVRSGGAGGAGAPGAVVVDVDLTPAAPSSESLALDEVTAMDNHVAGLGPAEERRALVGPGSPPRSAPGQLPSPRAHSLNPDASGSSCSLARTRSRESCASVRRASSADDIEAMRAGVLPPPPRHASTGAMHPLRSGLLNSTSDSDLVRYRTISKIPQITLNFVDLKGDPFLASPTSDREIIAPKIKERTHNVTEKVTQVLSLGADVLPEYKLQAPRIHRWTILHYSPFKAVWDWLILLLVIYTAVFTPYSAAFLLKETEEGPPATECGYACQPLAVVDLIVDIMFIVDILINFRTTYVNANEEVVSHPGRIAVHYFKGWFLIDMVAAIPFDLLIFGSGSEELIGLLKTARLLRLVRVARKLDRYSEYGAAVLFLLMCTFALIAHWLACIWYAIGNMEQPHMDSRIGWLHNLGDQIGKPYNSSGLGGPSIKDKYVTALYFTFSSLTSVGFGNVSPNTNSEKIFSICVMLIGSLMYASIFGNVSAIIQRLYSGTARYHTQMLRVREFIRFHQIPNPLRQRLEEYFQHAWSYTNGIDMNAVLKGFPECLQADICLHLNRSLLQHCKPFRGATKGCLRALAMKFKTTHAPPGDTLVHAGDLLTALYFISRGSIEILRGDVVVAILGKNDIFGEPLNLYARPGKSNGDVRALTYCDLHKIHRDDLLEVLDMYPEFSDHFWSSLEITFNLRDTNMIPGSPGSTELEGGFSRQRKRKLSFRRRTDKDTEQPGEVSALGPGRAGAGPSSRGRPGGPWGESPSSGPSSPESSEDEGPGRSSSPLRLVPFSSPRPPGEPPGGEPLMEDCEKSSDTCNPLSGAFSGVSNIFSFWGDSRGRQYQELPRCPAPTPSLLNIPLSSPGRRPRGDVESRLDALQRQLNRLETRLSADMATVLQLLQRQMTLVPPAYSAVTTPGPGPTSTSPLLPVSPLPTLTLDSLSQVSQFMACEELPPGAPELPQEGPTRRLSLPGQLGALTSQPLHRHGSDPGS

SMILES	hERG current change (%, negative = inhibition) at 1uM [%]
COC(=O)c1ccc(NC(=O)CN2C(=O)CC(C)S(=O)(=O)c3ccccc32)cc1 (stereo not drawn)	12.2
Cc1nc2ccc(Nc3nc4cc(S(=O)(=O)N5CCOCC5)ccc4o3)cc2s1	7.29
Cc1cc(Cl)ccc1NC(=S)NCCCN1CCCC1=O	9
Cc1ccc(S(=O)(=O)N(CC(=O)NCc2ccco2)C2CCCCC2)cc1	0.77
O=C(c1ccncc1)N1CCN(c2ccc(F)cc2)CC1	8.94
Cn1c(=O)c2[nH]c(Nc3ccccc3)nc2n(C)c1=O	3.11
O=S(=O)(NCCC(c1ccc(F)cc1)c1ccco1)c1ccccc1 (stereo not drawn)	1.58
COc1ccc(C(=O)N2CCN(c3ccccc3OC)CC2)cc1	0.513
COc1cccc(NC(=S)/C(=C(\[O-])c2ccc(C)c([N+](=O)[O-])c2)[n+]2ccccc2)c1	1.28
Cn1c(SCC(=O)Nc2ccc(NC(=O)c3cccc(F)c3)cc2)nnc1-c1ccncc1	18.5
c1cc2c3c(cccc3c1)NC1(CCCCCC1)N2	5.4
Cc1ccc(S(=O)(=O)N(CC(O)CN2C(=O)NC(C)(C)C2=O)c2cccc([N+](=O)[O-])c2)cc1 (stereo not drawn)	10.7
CCNC(=O)NC(=O)COC(=O)c1cccc(S(=O)(=O)N2CC3(C)CC2CC(C)(C)C3)c1 (stereo not drawn)	4.71
O=C(NCCS(=O)(=O)NC1CCCC1)c1ccccc1	3.74
CCCNC(=O)COc1coc(CN2CCN(Cc3ccccc3)CC2)cc1=O	15.2
COc1cccc(OC)c1C(=O)NC(=S)Nc1cc(-c2nc3ccccc3[nH]2)ccc1Cl	3.68
CN1CCN(c2ncnc3sc(-c4ccccc4)cc23)CC1	-6.7
CCOCCCNC(=O)c1cc2c(s1)-c1ccccc1SC2	11.3
O=C(CSc1nccc(=O)[nH]1)Nc1ccc(F)c([N+](=O)[O-])c1	6.68
C/C(=N/NC(=O)CSc1nc2ccccc2n1C)c1ccco1	-2.8
COC(=O)[C@@H](N)Cc1ccc(O)cc1	17.1
COC(=O)CCc1n[nH]c(=O)[nH]c1=O	13.4
O=C(Nc1ncccc1O)c1ccc(S(=O)(=O)N2CCCCCC2)cc1	10.5

SMILES	hERG current change (%, negative = inhibition) at 1uM [%]
CCn1ccnc1CC1COc2ccccc2O1.Cl (stereo not drawn)	11.1
COC(=O)NC(Nc1sc2c(c1C(N)=O)CCCC2)(C(=O)OC)C(F)(F)F (stereo not drawn)	18.4
C[C@]1(C(=O)O)Cc2oncc2C[C@@H]1C(=O)O	9.66
COC(=O)c1ccc(Cl)c(S(=O)(=O)N2CCCC2)c1	9.5
Cc1cc(NC(=O)c2ccc3c(c2)C(=O)N(C2CCCCC2)C3=O)no1	5.87
COc1ccc(NC2CCCN(Cc3cccc4cnccc34)C2)cc1 (stereo not drawn)	7.78
COc1ccccc1NC(=O)CCn1cccc1	9.24
CC(C)(C)C1CCc2c(C(=O)NNC(=O)CCC(=O)O)csc2C1 (stereo not drawn)	8.1
CC(=O)c1ccccc1OCCn1nc(C(=O)O)c2ccccc2c1=O	13.5
COc1ccc(CN(C)CC(=O)NC(=O)NCc2ccccc2)c(OC)c1	1.13
O=C(NCC1CCCO1)c1cccc(NC(=O)c2cccs2)c1 (stereo not drawn)	10.5
Cc1cccc2cc(CN(CC3CCCO3)C(=O)c3cccs3)c(=O)[nH]c12 (stereo not drawn)	12.7
CCOC(=O)c1c(C)nc2ccccn12	-9.94
C=CCOc1ccc(CN(C)C(=O)CN2C(=O)c3ccccc3C2=O)cc1	8.43
COCCSc1ccccc1C(=O)NCC1CCCO1 (stereo not drawn)	2.09
CN1CCN(c2nc(-c3ccccc3)ncc2S(C)(=O)=O)CC1	-0.369
CCOC(=O)c1c(S(=O)(=O)Nc2ccc(CN3CCC(C)CC3)cc2)c(C)n(C)c1C	11.1
O=C(COC(=O)c1ccccc1O)NCCC1=CCCCC1	15.7
Cc1cccc(NC(=O)c2cnn(C)c2)c1C	4.28
Br.COC(=O)c1ccc(OCCN2C3=NCCN3c3ccccc32)cc1	-56.5
C[N+]1(C)C2CC(OC(=O)[C@H](CO)c3ccccc3)CC1C1OC12.O=[N+]([O-])[O-] (stereo partly drawn)	14.6
COc1ccc(CCN2C(=O)NC(NS(=O)(=O)c3ccccc3)(C(F)(F)F)C2=O)cc1OC (stereo not drawn)	4.35
COc1ccc(S(=O)(=O)NCc2ccccn2)cc1NC(=O)c1ccc(Cl)cc1	-47.8

SMILES	hERG current change (%, negative = inhibition) at 1uM [%]
Cc1ccc(-c2nnc(SCC#CCOC(=O)c3cccs3)o2)cc1	14
COc1cc(NS(=O)(=O)c2c(C(=O)N3CCOCC3)c(C)n(C)c2C)cc(OC)c1OC	12.9
CCOc1ccc(-n2c(SCc3ccc([N+](=O)[O-])cc3)nnc2-c2ccccc2)cc1	1.7
O=C(COc1ncnc2ccc(Br)cc12)NCc1ccc2c(c1)OCO2	12.4
FC(F)(F)c1ccnc(NCc2ccco2)n1	11.1
Cc1cccc(NC(=O)C2CCCN(C(=O)NC3CCCCC3)C2)c1C (stereo not drawn)	4.4
CCCN(CCC)C(=O)Cn1ccc(=N)c2ccccc21.Cl	2.79
Cc1ccc2cc(CCNC(=O)c3cc4ccccc4o3)c(=O)[nH]c2c1C	13.2
Cc1ccccc1N(C(=O)Cc1cccs1)C(C(=O)NC1CCCCC1)c1cn(C)nc1C (stereo not drawn)	-0.242
CNS(=O)(=O)c1cn(CC(=O)NCc2ccc(N(C)C)cc2)cc1S(=O)(=O)NC	5.9
O=C(c1cc(F)ccc1F)C1CCCN(Cc2ccc3nonc3c2)C1 (stereo not drawn)	5.51
COC(=O)CN1C(=O)C(O)(CC(=O)c2ccc(C)o2)c2ccccc21 (stereo not drawn)	14.6
CCc1c(C)sc(NC(=O)Cc2ccccc2C)c1C(=O)N1CCOCC1	6.9
O=C(CNS(=O)(=O)c1cccs1)NCCc1ccc(Cl)cc1	5.29
CC(C)(C)c1ccc(OCC(=O)NNC(=O)Cc2cccs2)cc1	6.45
CC(Oc1cccc(Cl)c1)C(=O)Nc1ccccc1N1CCCCC1 (stereo not drawn)	-1.02
Cc1nnc(SCC(=O)NNC(=O)c2ccccc2)n1-c1ccccc1	9.38
COc1ccc(C(=O)C2CN(C)CC2c2ccc(Cl)cc2)cc1 (stereo not drawn)	-18.3
COc1ccccc1NC(=O)C1=C(C)Nc2ncnn2C1c1ccc(C)o1 (stereo not drawn)	10.2
Cc1ccc(NC(=S)N(CCCN2CCCC2)Cc2cccn2Cc2ccc(Cl)cc2)cc1Cl	9.49
COC(=O)c1ccc(COC(=O)c2ccccc2OC)cc1	1.26
COc1cccc(N2CC(C(=O)Nc3nnc(SCC(=O)Nc4cc(C)on4)s3)CC2=O)c1 (stereo not drawn)	12
CCN(CC)S(=O)(=O)c1ccc2[nH]c(=O)c3ccccc3c2c1	9.43

SMILES	hERG current change (%, negative = inhibition) at 1uM [%]
Fc1cccc(Cl)c1CSc1nnc(COc2cccc3cccnc23)o1	9.42
CCOC(=O)C1C(c2ccccc2)NC(=S)NC1(C)O (stereo not drawn)	7.56
CCC(C)(C)c1ccc(OCCCC[n+]2ccc(C)cc2)c(C(C)(C)CC)c1.[Br-]	-34.5
CCC(=O)NCCc1nc2ccccc2[nH]1	6.94
O=C(NC1CC1)c1ccc(-n2cccc2)cc1	5.25
COc1cc(/C=N/NC(=O)C(Cc2c[nH]c3ccccc23)NC(=O)OCC(C)C)cc([N+](=O)[O-])c1O (stereo not drawn)	15.4
CCS(=O)(=O)c1nnnn1-c1ccccc1S(C)(=O)=O	13.1
COc1cccc(C2CC(=O)Nc3cc4c(cc32)CCC4)c1 (stereo not drawn)	8.33
Cc1ccsc1C(=O)N[C@@H](C)c1nnc2ccccn12	5.07
Cc1ccccc1/C=N/NC(=O)Cn1nnc(N)n1	2.13
CCCC1(C(=O)O)NC(c2ccccc2O)C2C(=O)N(c3cccc(Cl)c3)C(=O)C21 (stereo not drawn)	10.7
COc1cccc(C2c3c(oc4ccc(F)cc4c3=O)C(=O)N2CCN2CCOCC2)c1OC (stereo not drawn)	4.91
Cc1ccc(-c2noc(CSc3nnc(Cc4ccccc4)n3-c3ccc(Cl)cc3)n2)cc1	14.9
CN1CCN(C(=O)c2ccc3nc(-c4ccccc4)c(-c4ccccc4)nc3c2)CC1	7
CN(C)CCOc1ccccc1-c1ccccc1.O=C(O)C(=O)O	3.69
Cc1cccc(C(=O)NC(=S)NCc2ccccc2)c1	12.4
Cc1ccc(-c2n[nH]c(=S)n2/N=C/c2c(C)nn(-c3ccccc3)c2C)cc1	-21
CCc1nc(N)c(C#N)c(-c2ccccc2OC)c1C	3.88
CCOC(=O)N1N=C(C)CC1(O)c1ccc(Cl)cc1 (stereo not drawn)	8.73
O=C(O)C(O)(c1ccccc1)C1CCCCC1 (stereo not drawn)	-2.46
CCc1ccc(OCC(=O)NC(NC(=S)Nc2ccc(C)cc2C)C(Cl)(Cl)Cl)cc1 (stereo not drawn)	0.376
